# Assay results as given in the BET-seq Pho4 binding data (Le et al. 2018).
# Some of the results follow. The energies were worked out here from pooled read counts, against the library average; single values are noisy.
# Target: T1, Pho4 (S. cerevisiae) (UniProt P07270)
# T1 sequence: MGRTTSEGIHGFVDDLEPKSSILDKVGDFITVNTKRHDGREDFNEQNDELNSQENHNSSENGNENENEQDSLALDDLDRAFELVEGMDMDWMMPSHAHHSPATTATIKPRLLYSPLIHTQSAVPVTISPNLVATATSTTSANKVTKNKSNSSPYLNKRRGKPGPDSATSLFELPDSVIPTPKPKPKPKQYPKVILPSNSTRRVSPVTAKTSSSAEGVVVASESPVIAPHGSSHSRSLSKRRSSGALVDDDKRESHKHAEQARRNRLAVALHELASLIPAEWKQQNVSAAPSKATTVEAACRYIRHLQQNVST
# Assay: relative binding free energy (BET-seq); higher = weaker binding
# Details: reference: library average
row,Sequence,relative binding free energy
1,GCTGTCACGTGAGGGA,0.41 kcal/mol
2,TGAAACACGTGTTGAT,0.01 kcal/mol
3,TAGTTCACGTGTCAGA,0.42 kcal/mol
4,ACGTTCACGTGTGTGT,0.18 kcal/mol
5,TTGTTCACGTGCCGTT,0.12 kcal/mol
6,GTGTTCACGTGGGCAA,0.16 kcal/mol
7,ATTTGCACGTGTTGAT,0.17 kcal/mol
8,GGATACACGTGGAGGT,0.02 kcal/mol
9,CTAGTCACGTGGTGAA,0.02 kcal/mol
10,AGTATCACGTGCGGTT,0.23 kcal/mol
11,TAGTACACGTGAGCGT,0.16 kcal/mol
12,TTAATCACGTGTGGGT,0.25 kcal/mol
13,GCGGTCACGTGTTTAT,0.19 kcal/mol
14,GGTTACACGTGGTTAT,0.14 kcal/mol
15,TTTATCACGTGAATAT,0.41 kcal/mol
16,AATAGCACGTGGCGTG,-0.04 kcal/mol
17,ATGTGCACGTGGGGAC,-0.13 kcal/mol
18,AGTAGCACGTGTAATT,-0.02 kcal/mol
19,TCATTCACGTGTTTTT,0.31 kcal/mol
20,AGAGTCACGTGTGTAC,0.13 kcal/mol
21,AGTGACACGTGTTGTC,-0.03 kcal/mol
22,TTTAGCACGTGCGCTT,-0.09 kcal/mol
23,TGGTTCACGTGGAGAA,0.24 kcal/mol

row,Sequence,relative binding free energy
1,GTGTTCACGTGGTGGC,0.28 kcal/mol
2,TATTCCACGTGGGGGA,-0.01 kcal/mol
3,CGAATCACGTGGGTGT,-0.12 kcal/mol
4,TTAGACACGTGTTTAA,-0.07 kcal/mol
5,ATTTACACGTGAGCTT,0.35 kcal/mol
6,TCATTCACGTGATTGT,0.3 kcal/mol
7,AAGGTCACGTGTTGGC,0.05 kcal/mol
8,AACTTCACGTGATGGG,0.22 kcal/mol
9,CTAGACACGTGGTGAT,0 kcal/mol
10,GGTTACACGTGAAGGT,0.39 kcal/mol
11,TGAGTCACGTGATGAA,0.33 kcal/mol
12,GATTGCACGTGTGCGG,0.18 kcal/mol
13,AGAATCACGTGGTGTT,0.11 kcal/mol
14,CATTGCACGTGGGCTT,-0.06 kcal/mol
15,GGATTCACGTGGATAA,0.41 kcal/mol
16,GTACGCACGTGGTAGT,-0.17 kcal/mol
17,TGTGCCACGTGAAGAT,0.22 kcal/mol
18,GTAAGCACGTGGGCAA,-0.02 kcal/mol
19,GTGAGCACGTGTACTG,-0.02 kcal/mol
20,GGTGTCACGTGAGCCT,0.24 kcal/mol
21,ATAATCACGTGGCGGG,0.06 kcal/mol
22,GGGATCACGTGTTTAG,0.24 kcal/mol
23,ATAGGCACGTGATGTG,-0.08 kcal/mol

row,Sequence,relative binding free energy
1,TGTAACACGTGGTGCG,0.02 kcal/mol
2,GTGGGCACGTGAGTGA,0.13 kcal/mol
3,TCGATCACGTGGTTTG,0.18 kcal/mol
4,GCCTTCACGTGGTGGT,0.23 kcal/mol
5,CTGTACACGTGTTTTG,-0.05 kcal/mol
6,TGGCTCACGTGTTCTT,0.23 kcal/mol
7,GGGGGCACGTGAGGTA,0.07 kcal/mol
8,GGAATCACGTGGAAGT,0.32 kcal/mol
9,GTTGACACGTGAGAAT,0.16 kcal/mol
10,GTATGCACGTGTCTAT,0.05 kcal/mol
11,TTTGGCACGTGCAGGA,-0.19 kcal/mol
12,AGTGTCACGTGATTTT,0.39 kcal/mol
13,ATTTGCACGTGTGTGG,0.07 kcal/mol
14,TTGCGCACGTGGGATT,-0.13 kcal/mol
15,TTTCGCACGTGAATTT,0.21 kcal/mol
16,TAAATCACGTGTGGTG,0.18 kcal/mol
17,GTATACACGTGGATGA,0.13 kcal/mol
18,GTAATCACGTGTGTAG,0.21 kcal/mol
19,TGAAGCACGTGATGGA,-0.07 kcal/mol
20,TGGTCCACGTGTATTT,0.1 kcal/mol
21,ACTTACACGTGGTTGT,0.06 kcal/mol
22,TTGTACACGTGTCTGT,0.09 kcal/mol
23,TAGATCACGTGAGGGC,0.52 kcal/mol

row,Sequence,relative binding free energy
1,AGTTGCACGTGTTAGC,0 kcal/mol
2,GGGCGCACGTGGTAGT,-0.05 kcal/mol
3,TCGGTCACGTGGTGGC,-0.03 kcal/mol
4,ATCGGCACGTGTGGGG,0.01 kcal/mol
5,TTGAGCACGTGTCTGT,-0.2 kcal/mol
6,TGACGCACGTGCGTGT,-0.18 kcal/mol
7,TCTGTCACGTGTTCTG,0.04 kcal/mol
8,TTTTTCACGTGGTCGA,0.27 kcal/mol
9,TGTGTCACGTGTAATG,0.26 kcal/mol
10,GTTGGCACGTGAAGTC,0.14 kcal/mol
11,TAATGCACGTGCTGGG,-0.05 kcal/mol
12,GGTAGCACGTGGTCAA,0 kcal/mol
13,GGGTGCACGTGAGAGC,0.22 kcal/mol
14,TCATGCACGTGGTGCG,-0.15 kcal/mol
15,GAGTTCACGTGATTGT,0.41 kcal/mol
16,GATGTCACGTGAGTTT,0.4 kcal/mol
17,GCTGGCACGTGTGCGG,-0.22 kcal/mol
18,TGATGCACGTGATATT,0.14 kcal/mol
19,AAGGGCACGTGTTGAA,-0.14 kcal/mol
20,GTTGCCACGTGTTAGG,0.01 kcal/mol
21,CGGTTCACGTGGGTAT,0.21 kcal/mol
22,TGGGACACGTGCTTGT,0.04 kcal/mol
23,GTGGTCACGTGATTCA,0.27 kcal/mol

row,Sequence,relative binding free energy
1,TATTTCACGTGGGAAT,0.21 kcal/mol
2,GGCATCACGTGTGTAG,0.24 kcal/mol
3,AGTAACACGTGGTGTT,-0.12 kcal/mol
4,TGGTACACGTGTTTTG,0.05 kcal/mol
5,TAGCACACGTGTGGTT,-0.04 kcal/mol
6,TGTTTCACGTGATCAG,0.29 kcal/mol
7,CTGTGCACGTGCGGTC,0.03 kcal/mol
8,AGGAGCACGTGTAGTA,-0.13 kcal/mol
9,TCTTTCACGTGGGGGA,0.24 kcal/mol
10,TTCCGCACGTGGTAGG,-0.1 kcal/mol
11,ATCGACACGTGGGTGA,-0.09 kcal/mol
12,GGAAACACGTGTTGAG,0.14 kcal/mol
13,ATGAGCACGTGTTGGG,-0.02 kcal/mol
14,GTTGTCACGTGGAGAT,0.08 kcal/mol
15,AGTTGCACGTGGTAAA,-0.04 kcal/mol
16,GAATTCACGTGTAATT,0.26 kcal/mol
17,TGAGGCACGTGTGTAC,-0.01 kcal/mol
18,GTGGTCACGTGTCTGG,0.15 kcal/mol
19,TTAGACACGTGCTGTG,0.01 kcal/mol
20,TCAGGCACGTGGTGGC,-0.12 kcal/mol
21,CGTCACACGTGGGTTG,-0.15 kcal/mol
22,TATAGCACGTGTTATT,-0.07 kcal/mol
23,GGTGGCACGTGCGTTA,0.01 kcal/mol
